{"source": "patent US5041426A", "about": "“Immune system enhancing 3-β-d-ribofuranosylthiazolo[4,5-d]pyridimine nucleosides and nucleotides” (priority 1988, dated 1991)", "tested_on": "Semliki Forest Virus", "details": "for antiviral activity (in words): Tables 16 and 17", "description": "Antiviral activity was also tested against Semliki Forest Virus an Encephalitis type virus. In this example compounds 7 and 36 were tested for therapeutic efficacy and additionally compound 7 was tested for prophylactic efficacy. Results of this test are shown in Table 16 for the therapeutic mode and in Table 17 for the prophylactic mode.\n^a Halfdaily doses were administered twice a day for 7 days starting\nhours previrus inoculation\ninoculation. Halfdaily doses were administered twice a day because of […]", "note": "Read-outs that look alike come from different tables or passages of the source."}
{"smiles": "Nc1nc2c(sc(=O)n2[C@@H]2O[C@H](CO)[C@@H](O)[C@H]2O)c(=O)[nH]1", "note": "[Compound 7, 5-Amino-3-β-D-ribofuranosylthiazolo[4,5-d]pyrimidine-2,7(6H)-dione]", "values": [{"measurement": "antiviral activity (in words)", "value": "exhibited antiviral activity in both a therapeutic mode and a prophylactic mode"}, {"measurement": "Mean Survival Time", "setting": "prophylactic, 200 mg/kg/day, half-daily doses 24 and 16 h pre-virus", "value": "11.8 ± 2.9", "unit": "days"}, {"measurement": "Mean Survival Time", "setting": "therapeutic, 50 mg/kg/day, once a day at -2 h and days 2, 4, 6", "value": "6.6 ± 0.8", "unit": "days"}, {"measurement": "Mean Survival Time", "setting": "therapeutic, 100 mg/kg/day, once a day at -2 h and days 2, 4, 6", "value": "7.3 ± 0.5", "unit": "days"}, {"measurement": "Mean Survival Time", "setting": "therapeutic, 200 mg/kg/day, -2 h and days 2, 4, 6, half-daily doses twice a day", "value": "4.2 ± 0.8", "unit": "days"}]}
{"smiles": "Nc1nc2c(sc(=O)n2[C@H]2C[C@H](O)[C@@H](CO)O2)c(=O)[nH]1", "note": "[Compound 36, 5-Amino-3-(2-deoxy-β-D-erythropentofuranosyl)thiazolo[4,5-d]pyrimidine-2,7(3H,6H)-dione]", "values": [{"measurement": "antiviral activity (in words)", "value": "exhibited therapeutic antiviral activity"}, {"measurement": "Mean Survival Time", "setting": "therapeutic, 50 mg/kg/day, schedule not given", "value": "6.1 ± 1.1", "unit": "days"}, {"measurement": "Mean Survival Time", "setting": "therapeutic, 100 mg/kg/day, schedule not given", "value": "6.8 ± 0.8", "unit": "days"}, {"measurement": "Mean Survival Time", "setting": "therapeutic, 200 mg/kg/day, schedule not given", "value": "7.0 ± 0.0", "unit": "days"}]}
